Test results taken from PMC2851737.
Read-outs that look alike come from different tables or passages of the source. No constants are given. Whether binding was seen depends on the method and setting. In cells and extracts the contact can be indirect. Some binding calls cover weakened binding; strength is not graded here.

Amino acid sequences for entries named in this document (tags omitted). Residues count along the entry.
UniProt Q10589, residues 1-161: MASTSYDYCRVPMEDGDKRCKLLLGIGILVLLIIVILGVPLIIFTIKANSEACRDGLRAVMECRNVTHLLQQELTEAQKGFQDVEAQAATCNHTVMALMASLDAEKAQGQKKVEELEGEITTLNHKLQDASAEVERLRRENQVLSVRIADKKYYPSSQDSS
UniProt Q9Y297: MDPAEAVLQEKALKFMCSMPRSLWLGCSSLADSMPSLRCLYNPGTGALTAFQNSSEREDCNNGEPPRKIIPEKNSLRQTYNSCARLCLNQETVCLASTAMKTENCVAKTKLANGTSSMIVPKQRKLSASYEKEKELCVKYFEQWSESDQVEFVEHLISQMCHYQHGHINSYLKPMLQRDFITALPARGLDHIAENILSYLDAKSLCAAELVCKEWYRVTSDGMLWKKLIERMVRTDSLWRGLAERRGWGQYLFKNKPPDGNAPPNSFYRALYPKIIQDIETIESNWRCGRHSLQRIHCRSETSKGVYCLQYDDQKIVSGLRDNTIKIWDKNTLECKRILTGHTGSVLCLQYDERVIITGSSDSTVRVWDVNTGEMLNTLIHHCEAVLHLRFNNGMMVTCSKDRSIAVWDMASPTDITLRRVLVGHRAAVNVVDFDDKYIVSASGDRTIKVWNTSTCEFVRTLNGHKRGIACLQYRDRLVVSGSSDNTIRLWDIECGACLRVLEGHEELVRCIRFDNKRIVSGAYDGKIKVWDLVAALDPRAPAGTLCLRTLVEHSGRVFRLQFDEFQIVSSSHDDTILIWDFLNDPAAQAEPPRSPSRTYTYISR

B1: HIV-1 Vpu, wild type, expressed from the HxBH10-vpu+ proviral construct in HEK 293T cells (protein, UniProt P69699 1-81)
chain: MQPIQIAIVALVVAIIIAIVVWSIVIIEYRKILRQRKIDRLIDRLIERAEDSGNESEGEISALVEMGVEMGHHAPWDVDDL
B2: HIV-1 Vpu, wild type, expressed from SVCMV-vpu+ in HEK 293T cells (protein, UniProt P69699 1-81)
chain: MQPIQIAIVALVVAIIIAIVVWSIVIIEYRKILRQRKIDRLIDRLIERAEDSGNESEGEISALVEMGVEMGHHAPWDVDDL
B3: Vpu KSL, expressed from HxBH10-vpu KSL in HeLa cells (protein, UniProt P69699 1-81)
chain: MQPIQKASLALVVAIIIAIVVWSIVIIEYRKILRQRKIDRLIDRLIERAEDSGNESEGEISALVEMGVEMGHHAPWDVDDL
B4: HIV-1 Vpu, wild type, expressed from the HxBH10-vpu+ proviral construct in HeLa cells (protein, UniProt P69699 1-81)
chain: MQPIQIAIVALVVAIIIAIVVWSIVIIEYRKILRQRKIDRLIDRLIERAEDSGNESEGEISALVEMGVEMGHHAPWDVDDL

Key:
[1] = target: endogenous Tetherin of HeLa cells (human (endogenous in HeLa)) (UniProt Q10589); experiment: co-IP; HeLa cells transfected with HxBH10 proviral constructs, 48 h; lysed in CHAPS buffer; pre-cleared; IP of endogenous Tetherin with anti-Tetherin rabbit serum and protein A sepharose; western blot with anti-Tetherin, anti-Vpu and anti-Env
[2] = target: Myc-His-β-TrCP (UniProt Q9Y297); experiment: co-IP; HEK 293T cells transfected with SVCMV-vpu constructs and pcDNA/Myc-His-β-TrCP, radiolabelled with 35S-Met/Cys, lysed in CHAPS buffer; IP with anti-myc, then sequentially with anti-Vpu; SDS-PAGE and autoradiography
[3] = target: HA-human Tetherin (human) (UniProt Q10589); experiment: co-IP; HEK 293T cells co-transfected with HA-Tetherin plasmids and HxBH10 proviral constructs, 48 h; lysed in RIPA-DOC; pre-cleared; IP with anti-Tetherin rabbit serum 2 h at 4°C and protein A sepharose; western blot with anti-Vpu and anti-Tetherin (anti-HA in Fig. 7D)
[4] = target: Myc-His-β-TrCP (UniProt Q9Y297); experiment: co-IP; HEK 293T cells transfected with SVCMV-vpu constructs and pcDNA/Myc-His-β-TrCP, radiolabelled with 35S-Met/Cys, lysed in CHAPS buffer; IP with anti-myc, then sequentially with anti-Vpu; SDS-PAGE and autoradiography; remark: listed apart in the source

| Molecule | binding [1] | also measured |
| --- | --- | --- |
| HIV-1 envelope glycoprotein precursor gp160 (from UniProt P03375 33-856) | no binding | – |
| Vpu S52D,S56D, expressed from SVCMV-vpu S52D,S56D in HEK 293T cells (from UniProt P69699 1-81) | – | binding [2]: no binding |
| B1 | – | binding [3]: binds |
| B2 | – | binding [4]: binds |
| B3 | no binding | – |
| B4 | binds | – |
